# Measurements: PubChem BioAssay AID1460 (National Center for Advancing Translational Sciences (NCATS), 2008)
# Among all 270,000 compounds or so, about 5,800 (2.1%) were called active. The shares of active, inactive and inconclusive entries below differ from those in the screen. Calls follow the shape of the dose curve; as a rule, active = well fitted inhibition curve with a large enough effect; inconclusive = small, poorly fitted or top-dose-only effect; inactive = flat fitted curve, though single readings scatter. A potency beside an inconclusive call is a rough fit, not a confirmed value.
# Biological target: Microtubule-associated protein tau (Homo sapiens) (UniProt P10636)
# Assay: qHTS for Inhibitors of Tau Fibril Formation, Thioflavin T Binding; also: nearly all actives have a fitted effect of over 55% in size
# Conditions: recombinant tau K18 P301L, heparin-induced fibrillization, ThT fluorescence; series mostly up to 57.4 µM
# Method in brief: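 ThT emission at 510 nm, taken 1 hr after adding 30 uM dye, quantifies aggregates formed when 20 uM heparin acts on human tau K18 P301L for 6 hr at 37 C.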
# % is scaled to controls: 0 for no effect and ±100 for the full control effect; potency is read from the fitted curve at half-maximal effect; tags tell the direction and shape of the fitted curve.
# Chain of UniProt P10636 (P10636 whole entry, looked up): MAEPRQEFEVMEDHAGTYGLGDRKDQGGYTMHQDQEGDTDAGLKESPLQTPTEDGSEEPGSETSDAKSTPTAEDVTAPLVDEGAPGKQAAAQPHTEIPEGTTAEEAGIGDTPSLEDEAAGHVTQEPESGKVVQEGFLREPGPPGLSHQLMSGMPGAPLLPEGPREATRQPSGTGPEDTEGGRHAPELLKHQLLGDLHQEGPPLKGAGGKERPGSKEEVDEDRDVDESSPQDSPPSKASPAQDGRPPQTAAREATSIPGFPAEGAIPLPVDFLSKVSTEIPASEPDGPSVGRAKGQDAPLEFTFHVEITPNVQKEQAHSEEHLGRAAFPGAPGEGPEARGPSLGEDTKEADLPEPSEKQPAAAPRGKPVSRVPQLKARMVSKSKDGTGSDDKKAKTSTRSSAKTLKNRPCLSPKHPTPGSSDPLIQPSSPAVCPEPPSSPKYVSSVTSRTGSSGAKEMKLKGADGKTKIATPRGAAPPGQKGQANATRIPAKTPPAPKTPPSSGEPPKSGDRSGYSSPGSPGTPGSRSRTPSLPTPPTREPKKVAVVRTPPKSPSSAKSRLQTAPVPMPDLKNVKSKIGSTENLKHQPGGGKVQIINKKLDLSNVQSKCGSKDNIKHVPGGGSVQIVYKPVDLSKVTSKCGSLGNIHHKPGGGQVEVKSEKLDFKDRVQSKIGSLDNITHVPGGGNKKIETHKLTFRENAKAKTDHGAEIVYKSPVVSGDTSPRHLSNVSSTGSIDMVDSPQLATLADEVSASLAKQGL
Structure (SMILES),Potency,"activity, negative = inhibition"
C/C(=N\NC(=O)CSc1nc2ccccc2o1)c1ccc(O)cc1,"inconclusive: 25.1 µM [inhibitor, single point]",–
O=C(CSc1ccccc1C(=O)O)c1ccc([N+](=O)[O-])cc1,"inconclusive: 31.6 µM [inhibitor, partial curve]",–
Cc1cccc(C(=O)O/N=C/c2c(Cl)n(C)c3ccccc23)c1,"inconclusive: 12.6 µM [inhibitor, partial curve, poor fit]",–
CCOc1ccc(C2=NNC(c3cccs3)=Nc3ccc(OCC)cc32)cc1,"inconclusive: 14.1 µM [inhibitor, partial curve]",–
O=C(O)c1cccc(CN2C(=O)SC(Nc3ccccc3)C2=O)c1 (stereo not drawn),"inconclusive: 28.2 µM [inhibitor, single point]",–
O=C(O)c1ccc(N=Cc2c(O)ccc3oc4c(c23)CCCC4)cc1,"inconclusive: 28.2 µM [inhibitor, partial curve]",–
Cc1ccc(C2=CC(c3ccccc3C)n3c(nc4ccccc43)N2)cc1 (stereo not drawn),"inconclusive: 39.8 µM [inhibitor, single point]",–
O=C(CN1CCN(Cc2ccccc2)CC1)N/N=C/c1ccc(Br)s1,inactive,–
CCOC(=O)/C(=N\Nc1ccc(Br)cc1)N1CCN(c2ccccc2OC)CC1,"inconclusive: 17.8 µM [inhibitor, partial curve]",–
CCOc1ccc(NC(=O)CSc2oc(-c3cccs3)nc2S(=O)(=O)c2ccc(C)cc2)cc1,inactive,–
CCc1ccc(NC(=O)C(=O)NCCc2csc(-c3cccc(F)c3)n2)cc1,inactive,–
Cc1[nH][nH]c(=O)c1C(c1c(C)[nH][nH]c1=O)c1cn(Cc2ccc(Cl)c(Cl)c2)c2ccccc12,active: 10 µM,–
Cc1ccc(N2CC(C(=O)Oc3cccc(N4C(=O)CCC4=O)c3)CC2=O)cc1 (stereo not drawn),"inconclusive: 17.8 µM [inhibitor, partial curve]",–
CCOC(=O)c1ccc(S(=O)(=O)N2CCN(C(C)=O)CC2)cc1,inactive,–
Cc1cc(S(=O)(=O)N2CCCC2)c(C)s1,inactive,–
C=CCN1c2ccccc2[C@]23C[C@@H](C(=O)OC)N(S(=O)(=O)c4ccc5c(c4)OCCN5C)C2=NC(C(=O)OC)=C(C(=O)OC)[C@H]13,–,inactive: 0.975% [at 11.5 µM]
Cc1nn(C(C)(C)C)c(OC(=O)c2ccco2)c1Sc1ccccc1,"inconclusive: 28.2 µM [inhibitor, single point]",–
CCn1cnc2cc(NCc3ccc(C)cc3)ccc21,"inconclusive: 35.5 µM [inhibitor, partial curve, poor fit]",–
CN(C(=O)c1ccccc1)c1ccc(OCC(=O)NC2CCS(=O)(=O)C2)cc1 (stereo not drawn),"inconclusive: 4.47 µM [inhibitor, single point]",–
COc1ccccc1NC(=O)c1sc2nc3c(c(C(F)(F)F)c2c1N)CN(C(C)=O)CC3,"inconclusive: 0.251 µM [inhibitor, full curve]",–
O=C(COc1ccc(Cl)cc1)NCC(c1ccco1)S(=O)(=O)c1ccccc1 (stereo not drawn),inactive,–
C=CCNC(=S)/C(=C(\[O-])c1ccc(Cl)cc1)[n+]1ccccc1,"inconclusive: 14.1 µM [inhibitor, partial curve]",–
CN(N)c1ccc2c(C(F)(F)F)cc(C(F)(F)F)nc2n1,inactive,–

Structure (SMILES),Potency,"activity, negative = inhibition"
O/N=C/c1cc(Cl)ccc1OCc1cccc2ccccc12,"inconclusive: 12.6 µM [inhibitor, partial curve]",–
O=C(N/N=C/C=C\c1ccccc1[N+](=O)[O-])c1ccccn1,"inconclusive: 28.2 µM [inhibitor, single point]",–
Cc1ccn2c(Nc3ccccc3C)c(-c3ccc(N4CCOCC4)cc3)nc2c1,"inconclusive: 14.1 µM [inhibitor, partial curve]",–
Cc1ccc(Cl)cc1N1CCN(C(=O)c2cnn(C(C)(C)C)c2C2CCN(C(=O)OC(C)(C)C)CC2)CC1,"inconclusive: 20 µM [inhibitor, single point]",–
O=C(COc1ccccc1)NC(=S)N1CCc2ccccc21,inactive,–
CC(OC(=O)Cc1ccc(Cl)cc1)C(=O)NCCC1=CCCCC1 (stereo not drawn),inactive,–
O=C/C(=C\Nc1ccc(Cl)cn1)c1nc2cc(Cl)ccc2o1,"inconclusive: 14.1 µM [inhibitor, partial curve, poor fit]",–
CCCCn1c(SCC(=O)c2ccc3c(c2)OCCO3)nnc1-c1ccoc1C,"inconclusive: 35.5 µM [inhibitor, single point]",–
Cc1ccc(C2c3c(C)nn(-c4ccc([N+](=O)[O-])cc4)c3N=C3C(=O)Nc4ccccc4N32)cc1 (stereo not drawn),"inconclusive: 5.01 µM [inhibitor, partial curve]",–
O=C(c1cc(COc2ccc3ncccc3c2)on1)N1CCCC(O)C1 (stereo not drawn),"inconclusive: 8.91 µM [inhibitor, partial curve]",–
Nc1nc(/C=C/c2cccnc2)nc(-c2ccccc2O)n1,"inconclusive: 14.1 µM [inhibitor, partial curve]",–
COC(=O)c1ccc(NC(=O)CN(Cc2ccccc2)S(=O)(=O)c2ccc(C)cc2)cc1,"inconclusive: 0.891 µM [inhibitor, single point]",–
Cc1sc2ncnc(N3CCN(c4ncccn4)CC3)c2c1C,"inconclusive: 22.4 µM [inhibitor, single point]",–
CC(C)CCNC(=O)NC(=O)CSc1nnc(-c2ccccc2Br)o1,"inconclusive: 1.58 µM [inhibitor, partial curve]",–
COc1ccc(-c2ccn(-c3cccc(F)n3)n2)cc1,"inconclusive: 22.4 µM [inhibitor, partial curve]",–
Cc1ccc2c(C)ccc(O)c2n1,inactive,–
COc1cc(C2C(=O)N(C3CCCCCC3)CC(=O)N2Cc2ccccc2)ccc1OC(C)C (stereo not drawn),inactive,–
CN(C)CCNC(=O)CN1N=C(c2ccccc2)CCC1=O,inactive,–
CC[C@H]1C(c2ccccc2)=NN(c2ccccc2)[C@@H]1CO,inactive,–
CC(=O)c1c(C)[nH]c(C2=NNC(=NC(C)(C)C)SC2)c1C,"inconclusive: 15.8 µM [inhibitor, partial curve]",–
CCc1cc(C(=O)NNC(=S)Nc2cc(C)ccc2C)cs1,"inconclusive: 20 µM [inhibitor, single point]",–
O=C(Nc1ccc(NC(=S)NC(=O)c2cccs2)cc1)c1ccccc1,"inconclusive: 2.51 µM [inhibitor, partial curve]",–
CN1CCN(Cc2c(O)ccc3cc(-c4ccccn4)c(=O)oc23)CC1,"inconclusive: 17.8 µM [activator, single point]",–

Structure (SMILES),Potency,"activity, negative = inhibition"
O=C(NCCCCc1ccccc1)C12CN(Cc3ccccc3)CC1C(c1ccc([N+](=O)[O-])cc1)=NO2 (stereo not drawn),inactive,–
CC(Sc1ccsc1[N+](=O)[O-])C(=O)NCCc1ccc(Cl)cc1 (stereo not drawn),"inconclusive: 28.2 µM [inhibitor, partial curve]",–
COc1ccc(NC(=O)c2ccco2)cc1NC(=O)c1ccc(C)c(C)c1,"inconclusive: 17.8 µM [inhibitor, partial curve, poor fit]",–
O=C(Cn1cc(SCc2ccc(Br)cc2)c2ccccc21)N1CCCCC1,"inconclusive: 14.1 µM [inhibitor, partial curve]",–
COC(=O)CSc1nc2cc(OC)ccc2n1C,inactive,–
COc1ccc(C(CNC(=O)c2cc3ccccc3cc2OC)N2CCCC2)cc1 (stereo not drawn),"inconclusive: 20 µM [inhibitor, partial curve, poor fit]",–
N#Cc1c(-c2ccccc2)cc(-c2ccco2)c(C#N)c1N,"inconclusive: 20 µM [inhibitor, single point]",–
Nc1ccc(C(=O)c2cccs2)cc1[N+](=O)[O-],"inconclusive: 15.8 µM [inhibitor, single point]",–
CCC(Sc1ncc(S(=O)(=O)c2ccc(C)cc2)c(=O)[nH]1)C(=O)Nc1cc(C)ccc1C (stereo not drawn),"inconclusive: 22.4 µM [inhibitor, single point]",–
CCOC(=O)Nc1ccc(C(=O)/C=C/c2ccccc2)cc1,"inconclusive: 0.891 µM [inhibitor, full curve]",–
Cc1ccc(NC(=O)C2CCCN(c3ncnc4onc(C)c34)C2)c(Cl)c1 (stereo not drawn),inactive,–
COc1ccc(-c2csc(Nc3cccnc3)n2)cc1,"inconclusive: 22.4 µM [inhibitor, single point]",–
C=CCSc1nnc2c(n1)OC(c1ccco1)Nc1ccccc1-2 (stereo not drawn),"inconclusive: 14.1 µM [inhibitor, partial curve]",–
Nc1c2c(=O)oc(-c3ccccc3)cc2nn1-c1ccccc1,"inconclusive: 39.8 µM [inhibitor, single point]",–
c1ccc(C2=Nc3ccccc3SC2c2nc3ccccc3[nH]2)cc1 (stereo not drawn),"inconclusive: 25.1 µM [inhibitor, partial curve]",–
COc1ccc(S(=O)(=O)/N=C2/NC(=O)/C(=C/c3ccco3)S2)cc1,"inconclusive: 31.6 µM [inhibitor, partial curve]",–
Cc1c(Cl)cccc1N1CCn2c1nc1c2c(=O)n(CC(=O)O)c(=O)n1C,inactive,–
CCCCNC(=O)CC1Nc2cc(C)c(C)cc2NC1=O (stereo not drawn),"inconclusive: 0.447 µM [inhibitor, single point]",–
CN(C(=O)c1c[nH]c2ccc(S(=O)(=O)Nc3cccc(C(F)(F)F)c3)cc2c1=O)C1CCCCC1,inactive,–
COc1ccc(N2CCN(C(=O)CN3CCSc4ccccc43)CC2)cc1,"inconclusive: 11.2 µM [inhibitor, partial curve]",–
CCc1ccc(C2=NN(S(C)(=O)=O)C(c3cccs3)C2)cc1 (stereo not drawn),inactive,–
Cc1ccc(CSCCC(=O)N2CCN(c3ccc(F)cc3)CC2)cc1,"inconclusive: 17.8 µM [inhibitor, partial curve, poor fit]",–
